{
  "source": "paper PMC6919601",
  "about": "“Identification of Plasmodium dipeptidyl aminopeptidase allosteric inhibitors by high throughput screening” (PLoS ONE, 2019)",
  "note": "Screen size: about 110,000 compounds; about 230 (0.21%) showed an effect of 50% or more. Some of the results follow.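 Also: 30 min substrate incubation versus DMSO and 10 µM JCP410 controls.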",
  "data": [
    {"target": "DPAP1 (Plasmodium falciparum, UniProt Q8IIJ9)", "sequence (Q8IIJ9 whole entry, looked up)": "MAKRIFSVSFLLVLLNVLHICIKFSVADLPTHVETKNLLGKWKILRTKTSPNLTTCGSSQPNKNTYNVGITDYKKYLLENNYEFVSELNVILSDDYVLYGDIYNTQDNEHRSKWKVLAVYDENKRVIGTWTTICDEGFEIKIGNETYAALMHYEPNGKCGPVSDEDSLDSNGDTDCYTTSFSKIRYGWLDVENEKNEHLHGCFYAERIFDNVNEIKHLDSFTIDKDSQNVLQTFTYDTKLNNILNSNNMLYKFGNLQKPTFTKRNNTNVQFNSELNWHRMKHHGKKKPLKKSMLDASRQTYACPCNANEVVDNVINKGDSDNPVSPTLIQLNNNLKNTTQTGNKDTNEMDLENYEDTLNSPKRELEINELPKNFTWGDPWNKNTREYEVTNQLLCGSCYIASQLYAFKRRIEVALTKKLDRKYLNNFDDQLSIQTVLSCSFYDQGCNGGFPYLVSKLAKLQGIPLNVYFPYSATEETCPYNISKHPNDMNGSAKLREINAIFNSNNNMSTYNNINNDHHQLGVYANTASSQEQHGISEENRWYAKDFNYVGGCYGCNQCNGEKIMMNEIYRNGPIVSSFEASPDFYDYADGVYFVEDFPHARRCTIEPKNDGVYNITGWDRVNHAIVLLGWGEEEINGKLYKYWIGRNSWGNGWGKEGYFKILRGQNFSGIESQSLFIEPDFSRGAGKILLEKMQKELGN", "test": "primary screen, percent inhibition; read by cleavage of a fluorogenic dipeptide substrate; higher = more effect of the substance", "parameters": "species or system P. falciparum D10 trophozoite lysates; single well", "units": {"% Inhibition @ 10 uM": "%"}, "values": [
      {"smiles": "COCCNC(=O)c1cc2c(s1)-c1ccccc1OC2", "% Inhibition @ 10 uM": 1.89},
      {"smiles": "OC(COc1ccccc1F)CN1CCN(c2ccc(F)cc2)CC1", "note": "(centres unmarked)", "% Inhibition @ 10 uM": -3.29},
      {"smiles": "COc1cccc(C2CC(=O)N3C(=C2C#N)SCC3(O)c2ccc(Cl)cc2)c1OC", "note": "(centres unmarked)", "% Inhibition @ 10 uM": -0.0235},
      {"smiles": "COc1ccc(NC(=O)c2ccccc2NC(=O)c2ccccc2)cc1", "% Inhibition @ 10 uM": -1.98},
      {"smiles": "Cc1ccc(C2=CC(c3ccccc3C)n3ncnc3N2)cc1", "note": "(centres unmarked)", "% Inhibition @ 10 uM": 4.86},
      {"smiles": "CC12C(=O)N(Cc3ccccc3)C(=O)C1C1C=CC2C1", "note": "(centres unmarked)", "% Inhibition @ 10 uM": -2.78},
      {"smiles": "CN1C(=O)C(=Cc2cn(CCOc3ccccc3)c3ccccc23)C(=O)N(C)C1=O", "% Inhibition @ 10 uM": -1.26},
      {"smiles": "COc1ccccc1-n1c(C)cc(/C=C2/C(=N)N3C(SC)=NSC3=NC2=O)c1C", "% Inhibition @ 10 uM": 0.205},
      {"smiles": "COc1ccccc1/C=C/C=c1\\sc2nc(-c3ccccc3C)nn2c1=O", "% Inhibition @ 10 uM": -1.18},
      {"smiles": "O=S(=O)(c1ccccc1)c1ccc(S(=O)(=O)N2CCOCC2)cc1", "% Inhibition @ 10 uM": -2.07},
      {"smiles": "Cc1ccc(C(=O)Nc2c(C(=O)N3CCOCC3)cnn2-c2ccccc2)cc1", "% Inhibition @ 10 uM": 14.5},
      {"smiles": "Cc1[nH]nc2c1C1(CCCCC1)C(C#N)=C(N)O2", "% Inhibition @ 10 uM": -6.7},
      {"smiles": "CC(C)CC(NC(=O)N1CCN(C)CC1)C(=O)NCC#N", "note": "(centres unmarked)", "% Inhibition @ 10 uM": 2.22},
      {"smiles": "COCCNC(=O)CCc1nc(-c2ccccc2Cl)no1", "% Inhibition @ 10 uM": 0.366},
      {"smiles": "CC(=O)c1ccc(-n2cnc3c(sc4nc5ccccc5cc43)c2=O)cc1", "% Inhibition @ 10 uM": -2.77},
      {"smiles": "O=C(CNCc1ccccc1)N1c2ccccc2Sc2ccc(C(F)(F)F)cc21", "% Inhibition @ 10 uM": -2.36},
      {"smiles": "CC1(C)Cc2nc(O)c(Cc3ccccc3)c(O)c2C(O)C1", "note": "(centres unmarked)", "% Inhibition @ 10 uM": -2.83},
      {"smiles": "CN1C(C(=O)N2CCC(C(N)=O)CC2)=CC(c2cccs2)=NS1(=O)=O", "% Inhibition @ 10 uM": 2.32},
      {"smiles": "O=C(NCc1ccccc1)c1cccc2c1-c1ccccc1C2=O", "% Inhibition @ 10 uM": 1.27},
      {"smiles": "CCOc1cccc(OCC)c2c(C)nc(C)c1-2", "% Inhibition @ 10 uM": -1.57},
      {"smiles": "COc1ccc(C2(CNC(=O)Cc3ccc(OC)c(OC)c3)CCCC2)cc1", "% Inhibition @ 10 uM": -0.865},
      {"smiles": "COc1ccc(CNC(=O)c2ccc(CS(=O)Cc3ccc(Cl)cc3)o2)cc1", "note": "(centres unmarked)", "% Inhibition @ 10 uM": -3.61},
      {"smiles": "Cc1ccc(NC(=O)c2ccc(Br)cc2)c([N+](=O)[O-])c1", "% Inhibition @ 10 uM": 2.46},
      {"smiles": "Cc1nn(CCCC(=O)N2CCN(Cc3ccccc3)CC2)c(=O)c2c1sc1ccccc12", "% Inhibition @ 10 uM": -4.09},
      {"smiles": "C/C(=C1/SC(N2CCCC2)=NC1=O)c1ccc(Br)cc1", "% Inhibition @ 10 uM": 1.88},
      {"smiles": "COc1ccc(N(C(C)C(=O)Nc2cccc(C)c2)S(C)(=O)=O)cc1", "note": "(centres unmarked)", "% Inhibition @ 10 uM": 3.53},
      {"smiles": "CC(SCc1nc2ccccc2[nH]1)c1ccccc1", "note": "(centres unmarked)", "% Inhibition @ 10 uM": -0.0235},
      {"smiles": "Cc1cnn(-c2nc(-c3ccccc3)cc(-c3ccccc3)n2)c1", "% Inhibition @ 10 uM": 5.73},
      {"smiles": "CCCN(CCO)C1CCCC(C)C1", "note": "(centres unmarked)", "% Inhibition @ 10 uM": -0.603},
      {"smiles": "COc1cc(C)c(CNCCc2cccc(F)c2)cc1C", "% Inhibition @ 10 uM": 15.4},
      {"smiles": "CS(=O)(=O)N(CC(=O)N1CCCCCC1)c1cccc(F)c1", "% Inhibition @ 10 uM": 2.54},
      {"smiles": "Cc1cc(O)nc2c(C)c(Cl)ccc12", "% Inhibition @ 10 uM": -1.96},
      {"smiles": "CCC(C)c1ccc(NC(=O)c2nn(C)cc2Br)cc1", "note": "(centres unmarked)", "% Inhibition @ 10 uM": -8.38},
      {"smiles": "CCOc1ccc(S(=O)(=O)Nc2cc(OC)c(Cl)cc2OC)cc1", "% Inhibition @ 10 uM": -2.83},
      {"smiles": "Cc1nc2ccccc2n1CCN1CCOCC1", "% Inhibition @ 10 uM": -2.35},
      {"smiles": "CC(C)(C)CNC(=O)C(=O)Nc1ccc(Cl)c(Cl)c1", "% Inhibition @ 10 uM": -0.414},
      {"smiles": "Fc1cccc(Cl)c1CN1CCc2c([nH]c3ccccc23)C1", "% Inhibition @ 10 uM": 6.54},
      {"smiles": "CC1(C)COC(CCCOc2ccc(Cl)cc2Cl)=N1", "% Inhibition @ 10 uM": -2.02},
      {"smiles": "O=C(CN1C(=O)S/C(=C/c2cccc(Cl)c2)C1=O)N1CCOCC1", "% Inhibition @ 10 uM": 1.35},
      {"smiles": "N=C1/C(=C/c2cccn2CCCOc2ccccc2)C(=O)N=C2SC=C(c3ccccc3)N12", "% Inhibition @ 10 uM": -3.51},
      {"smiles": "COCCNc1ncnc2c1cnn2Cc1ccc(Cl)cc1", "% Inhibition @ 10 uM": 3.21},
      {"smiles": "NC(=O)NC(c1ccccc1)c1ccccc1Br", "note": "(centres unmarked)", "% Inhibition @ 10 uM": -1.5},
      {"smiles": "CCOc1ccccc1CNCc1c(C(=O)O)n(Cc2ccc(F)cc2)c2ccccc12", "% Inhibition @ 10 uM": -1.97},
      {"smiles": "CCCN1C(=O)[C@@H]2[C@H](C1=O)[C@H](C(=O)c1ccc(Cl)cc1)N1C=Cc3ccccc3[C@@H]21", "% Inhibition @ 10 uM": 2.95},
      {"smiles": "CC(C)(C)c1cc(/C=N/O)c(C(C)(C)C)s1", "% Inhibition @ 10 uM": 3.25},
      {"smiles": "C=CCn1c(SCC)nc(O)cc1=O", "% Inhibition @ 10 uM": -0.856},
      {"smiles": "CS(=O)(=O)N(CC(=O)Nc1cc(Cl)ccc1Oc1ccccc1)c1ccccc1", "% Inhibition @ 10 uM": -0.318},
      {"smiles": "Cc1c(C(=O)NCc2ccco2)oc2c1-c1nn(Cc3ccc(Cl)cc3)cc1CC2", "% Inhibition @ 10 uM": 8.36},
      {"smiles": "CC1CCCCN1c1nc2ccccc2n2nnnc12", "note": "(centres unmarked)", "% Inhibition @ 10 uM": -0.522},
      {"smiles": "COC(=O)c1cc(S(=O)(=O)NCCc2ccco2)cn1C", "% Inhibition @ 10 uM": 0.224},
      {"smiles": "COc1ccc(C2CC(C(F)(F)F)n3ncc(C(=O)N(C)Cc4ccccc4)c3N2)cc1", "note": "(centres unmarked)", "% Inhibition @ 10 uM": -7.02},
      {"smiles": "N#C/C(=C\\c1c(Oc2ccccc2)nc2ccccn2c1=O)C(=O)NC1CCS(=O)(=O)C1", "note": "(centres unmarked)", "% Inhibition @ 10 uM": 8.51},
      {"smiles": "CCC(C)OC(=O)C1=C(C)NC(=O)CC1c1ccccc1Br", "note": "(centres unmarked)", "% Inhibition @ 10 uM": 13.2},
      {"smiles": "COC(=O)C1=CN(Cc2ccc(F)cc2)C=C(C(=O)OC)C1c1cccc(Oc2ccccc2)c1", "% Inhibition @ 10 uM": -1.48},
      {"smiles": "CCCCCC(=O)Nc1ccc(N2CCOCC2)c(Cl)c1", "% Inhibition @ 10 uM": -0.25},
      {"smiles": "CN(CCCn1cnc2c3ccccc3nc-2c1O)C1CCCCC1", "% Inhibition @ 10 uM": 3.24},
      {"smiles": "CCOC(=O)c1ccc2nc(C(F)(F)F)nc(N3CCc4ccccc4C3)c2c1", "% Inhibition @ 10 uM": -2.91},
      {"smiles": "OCCSc1c(O)nc2ccc(Cl)cc2c1-c1ccccc1", "% Inhibition @ 10 uM": 6.51},
      {"smiles": "COc1ccc(/C=C/C(=O)Nc2nc3ccc(S(C)(=O)=O)cc3s2)cc1Br", "% Inhibition @ 10 uM": 3.39},
      {"smiles": "COc1ccc(C=O)cc1Cn1cccc1C1=NC(c2ccccc2)CO1", "note": "(centres unmarked)", "% Inhibition @ 10 uM": 0.163},
      {"smiles": "Cc1cc(NC(=O)c2ccc(NC(=O)C(C)Oc3ccccc3)cc2)no1", "note": "(centres unmarked)", "% Inhibition @ 10 uM": -5.6},
      {"smiles": "CC(C)OCCCNC(=O)CN1CCN(Cc2ccccc2Cl)C1=O", "% Inhibition @ 10 uM": -0.148},
      {"smiles": "COc1ccc2c(C)c(CC(=O)NCc3ccc4c(c3)OCO4)c(=O)oc2c1OC", "% Inhibition @ 10 uM": 4.13},
      {"smiles": "Cc1oc(C23CC4CC(CC(C4)C2)C3)cc1C(=O)NCc1ccccc1", "% Inhibition @ 10 uM": -1.24},
      {"smiles": "CCc1ccc(CNC(=O)C2CC(=O)N(C3CCCC3)C2)cc1", "note": "(centres unmarked)", "% Inhibition @ 10 uM": -1.21}
    ]}
  ]
}
